According to the supplement of paper PMC11417369:
± gives the standard deviation of the averaged measurements. Some of the results follow.

system: PfAP2-LT AP2 domain (GST-tagged); experiment: gcPBM binding intensity (ln(normalized median fluorescence intensity)); higher = stronger DNA binding
Method in brief: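 For binding intensity, the highest Masliner-normalised natural-log median intensity across replicate spots of either probe orientation was taken. Protein bound to the array was stained with Alexa488 anti-GST antibody and scanned at 488 nm. The protein, GST-tagged P. falciparum DNA-binding domains from E. coli at about 25 μg on average, had been applied for 1 h to an Agilent 4 × 180k array of primer-extended double-stranded 36-bp intergenic genomic probes and negative controls.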

Sequence	gcPBM binding intensity (ln)
TGTATATCACATGAGAGGTGGAGATGGGGATAAATA [CACACA_negctrl_site1148]	9.01 ± 0.13
TACAACCTTTAGACAAGTACAAGAATTATATGTGGC [XGTACX_site4581]	8.82 ± 0.39
ACTAAAAAAATAAACACACAGATTTATATAATATAT [CACACA_site4884]	8.89 ± 0.45
TCTATACCTATTCTTACACACATATGTATAAATATA [CACACA_site6407]	9.04 ± 0.36
TTGACAACTCTTTTCATACACACAAAAAAAAAAAAA [CACACA_site2362]	8.63 ± 0.36
AATTTGATAATATCATGTACATGAAAGAATTCATGA [XGTACX_site8463]	8.7 ± 0.39
GTTAAAAGAAAAATATGTACATAAAAAAATTAGAAA [XGTACX_site578]	8.71 ± 0.57
CTCTTGTTTCCATATAGTACGTAATAATATATACAA [XGTACX_site2428]	8.71 ± 0.35
TATATATATATATGATGTACACATTTTATTATTTGT [XGTACX_site1147]	9.54 ± 0.25
TTTTCAATTAAAAAAAAATTATATTTTATTATTACA [CACACA_negctrl_site142]	7.96 ± 0.49
AAGATGGTAAAGAATTGTACGCGCATATATATATTT [XGTACX_site3904]	9.15 ± 0.48
TACATAAATTAAAACACACACACACCCAAAAAAAAA [CACACA_site2261]	9.9 ± 0.22
AAAAAATAAAAAGATACACACATATGTATAATATAC [CACACA_site1496]	9.22 ± 0.46
GTGTATATTATTTTATCACACATGTACATATGTTAA [CACACA_site5473]	8.99 ± 0.35
AATAAAAAAATATGAAATTATGACATATAGCATTTG [TGCATGCA_negctrl_site160]	8.57 ± 0.52
TTTTTTGTTAAGTTGGTGCAAACAATAGTTATTGAC	8.58 ± 0.41
GGAGCACCCAGACACACACACACATATATATATATA [CACACA_site336]	10.4 ± 0.19
TATATCTACTACACACGTACACAAAATAAGATACCT [XGTACX_site7886]	9.16 ± 0.25
GAATTGTATTGGTACTGTACAATTAAATTAAAAAAA [XGTACX_site1891]	8.63 ± 0.55
TGTAGTCTGGAGAAGAGTACATAGTATCTGGTAGCT [XGTACX_site2029]	8.86 ± 0.45
ACATAAAATTATTATACATGCATATTTAATTTTTTC [TGCATGCA_site353]	8.69 ± 0.45
AAAAAAAAAAAACACACACACACACCCATATATAAA [CACACA_site1170]	9.995 ± 0.064
AAAAATATAAACAAACGTACGAAGTGATGATATATT [XGTACX_site2242]	9.13 ± 0.52

Sequence	gcPBM binding intensity (ln)
TATTATATTTTTATTTGTACGTAAAATTAAGTTATG [XGTACX_site2405]	8.58 ± 0.44
GCACATTTTTTTATCACACATATAATTACAATATAA [CACACA_site5585]	8.74 ± 0.31
TTTCGGTTTTTTTTTATTTTTTTTTTTTTATTATTT [CACACA_negctrl_site335]	8.66 ± 0.59
TACGTATGCCTGTGATGTACATATATATATACATAC [XGTACX_site4728]	9.21 ± 0.38
AAAAGATGCGCATACACACAGATGAATAACAAAAAA [CACACA_site6865]	9.44 ± 0.6
ATAATATAATTTTGCAGTACCCAAAAAACAAAATAA [XGTACX_site4827]	8.7 ± 0.45
AAAGTATAATAATACACACACTTTAAAAGTTAAATG [CACACA_site7550]	9.17 ± 0.49
AATATGATATATATATGTACATATATATAATATAAT [XGTACX_site3072]	8.99 ± 0.38
ATATAGGTAAAAAGTATACACACGTTGACACATTCT [CACACA_site1199]	9.08 ± 0.37
TCATTATATCATGGTAGTACTCATTAATAATACGTA [XGTACX_site8701]	8.57 ± 0.37
GTTAATAAAAATATATGTACATAATTATTATGAAAA [XGTACX_site3030]	8.64 ± 0.41
TATATATTTTTTAAACCACACACAATATAGAGTATA [CACACA_site8106]	8.9 ± 0.35
AATATTATTTAGGAGCGTACGTTTTATTTACATATT [XGTACX_site5188]	8.98 ± 0.32
GGCATAAATATATGCACACACAAAAAAAAAAAAAAA [CACACA_site59]	9.29 ± 0.52
ATATTGTTTTATATAGAACACACATAAAAATATATA [CACACA_site8314]	8.65 ± 0.52
TTTTTTTTTTTAAAAAGTACACAATTAATTAATATA [XGTACX_site8494]	8.1 ± 0.4
TATAAACATTATAAATGTACAAATATATATATATAT [XGTACX_site3218]	9.21 ± 0.26
TTATTGAAAAAAGAACAAAAAAAAAAAGAAAAATTA [XGTACX_negctrl_site438]	8.17 ± 0.48
AAAATAAGAAATAGATGTACTTATAAATAAATACAA [XGTACX_site4441]	8.56 ± 0.57
GAAAGAATAAAATTTACACACATATATATATACATA [CACACA_site2250]	8.98 ± 0.38
ATATATATATATATATGTACTTATTTGAATACTAAA [XGTACX_site2330]	9.27 ± 0.16
AAGGGTTGCCTGTGTAGTACATATATATATATATAT [XGTACX_site8555]	9.61 ± 0.37
TGACTATGTATATTTAGTACATAAAATCAATAATAT [XGTACX_site4082]	8.65 ± 0.45

Sequence	gcPBM binding intensity (ln)
AAATTATATTATTGAACACACGTTTGGTAATGTTTT [CACACA_site5469]	8.87 ± 0.35
TCATTCATAAAAATAACACACAAAAAAAAAAAAAAA [CACACA_site1800]	8.64 ± 0.42
GTAAACAAAATATTTTGTACATATTTTATATTATTT [XGTACX_site7837]	8.69 ± 0.41
AGGGAAAAAAAAAAAGTGCATTTGTATTAAATGAAT	8.55 ± 0.63
AAATATAAGAAAAAGGTGCTTTTTTTTTTTTTTTTT [GTGCAC_site9700]	8.69 ± 0.3
ATAATGATATATAGTACACACAAAAATGGAAGTAAA [CACACA_site7541]	9.23 ± 0.46
GGACATTTTTATAAGGTGCACGGTTTTGATATTACT [GTGCAC_site9892]	8.98 ± 0.39
AACCACATACATATAACACACATATACAATATATAT [CACACA_site8607]	9.29 ± 0.39
CATTAAATATATAAATGTACAAATATATTTTTCAAA [XGTACX_site4429]	8.42 ± 0.49
TTGTTCATATTTTTTATTGTGTTAATATTTATAAAA [GTGCAC_negctrl_site423]	8.47 ± 0.38
TTAATGTAGAGAAAATGTACATTTTATTAAAACAAT [XGTACX_site6376]	8.76 ± 0.47
CCTATTTATAAATACACACACATATATAAATAAATA [CACACA_site5629]	9.23 ± 0.25
AAAAAACTATTATGTGCATGCACAAGTCAGGTAAAT [TGCATGCA_site791]	9.29 ± 0.32
TATTTATAGATATATACACACATATTTATATTTATA [CACACA_site6441]	8.81 ± 0.52
AAAAAGAAATCCAATACACACCTTCAAAATGGGTAT [CACACA_site4978]	8.89 ± 0.37
TTTTTTATTTTTGCGTGTACATAATAATGAATCTTC [XGTACX_site8077]	8.72 ± 0.51
GAAATTTCCCATATTACACACATACTATGATATATA [CACACA_site5987]	9.1 ± 0.35
TTTTAAATATATGTGCTATTATATTAAGAGATGTAA [GTGCAC_negctrl_site560]	8.19 ± 0.38
ATCTATAAATTTCCACGTACATATATATATATATAT [XGTACX_site4502]	9.37 ± 0.13
CCTCTTTTTATTCTCACACACGTTTATATATAAAGT [CACACA_site4992]	9.29 ± 0.54
TTATAAATGTATTTATGTACATATAAATATATATAA [XGTACX_site2970]	8.44 ± 0.45
AAAAGAAAATAAGAAACACACAAAAATATATAAAAA [CACACA_site3697]	8.96 ± 0.69
TTCTTTGCTTTTCAAACACACAAAAGTTATTATATT [CACACA_site521]	8.79 ± 0.45

Sequence	gcPBM binding intensity (ln)
ATATAAATCAAAAACGCACACATAAATATTTATATA [CACACA_site2442]	9.22 ± 0.3
ATAAAAGAATAAATAAAACACATATATATATATATA [XGTACX_negctrl_site31]	9.76
TTTTTTTTTTTTTTGGTGCACATAGAAATTCTAAAA [GTGCAC_site9809]	8.25 ± 0.28
CTTTCAAAATTATTTATAGTATCTCATATTTTAGTA [XGTACX_negctrl_site72]	8.29 ± 0.45
TTTATTAATAAAAAGGTGCAATCAGGAAAAATTATC [GTGCAC_site9626]	8.63 ± 0.47
ACACATATGTATATATGTACTTATATATATATATAT [XGTACX_site8632]	9.29 ± 0.23
ATCCTTTATAAATAAGTGCATATAAAAAATAATATT [GTGCAC_site9759]	8.56 ± 0.45
ATAATAAATTCTACGCGTACAAAACCATGAACATTA [XGTACX_site7505]	8.86 ± 0.41
TTTTAGCTATTTTAATATAATGAAGCAAAAAATAAA [TGCATGCA_negctrl_site576]	8.32 ± 0.4
ATGTATTACTTAAATATATGAAACATATTACTTTTA [CACACA_negctrl_site496]	8.48 ± 0.38
AATTATATATAAAAAGTGCAAAACGATAATTCATCA	9 ± 0.44
AATATATATATATTATGTACACATAGAAATATATTA [XGTACX_site3874]	8.85 ± 0.38
TCATATTCCAAAAAAAAAAAAAAAAAAAAAAAAATA [CACACA_negctrl_site1293]	8.31 ± 0.46
CATACATACAAACACACACACATATAAATACATACA [CACACA_site4625]	9.99 ± 0.31
ACATTGTTGGTGTTAGTGCATTGGTAAATATTATAT	8.89 ± 0.28
AAAAAAAAAAAAAAAACACACATATCTGTATTTATA [CACACA_site5760]	8.85 ± 0.37
ATAGTATATCAAAATTTGTAAATCATTCTCAATAAA [CACACA_negctrl_site430]	8.46 ± 0.58
AAAAAAAAAATTTTCGTGCACATAAGAAAATTTAAA [GTGCAC_site9788]	8.46 ± 0.55
ACCTACATACATATGTGTACTTATTTGTATTCACTG [XGTACX_site7124]	9.38 ± 0.46
ATAATATATGAAAAAACGATTTTTTCATTTTAAATA [XGTACX_negctrl_site146]	8.38 ± 0.36
